Read counts are not given, so values of variants with three or more changes are uncertain.

This is an account of results in the RNAGym collection of RNA variant scans (doi:10.1093/nar/gkz1192).

The chains are these.
B1: CPEB3 Ribozyme (parent)
chain: UAACAGGGGGCCACAGCAGAAGCGUUCACGUCGCAGCCCCUGUCAGAUUCUGGUGAAUCUGCGAAUUCUGCUGUAUAUCUC

The variants in the series derive from B1. In words: self-cleavage, relative activity (ratio to wild type); higher = more cleavage; in vitro, sequencing. A digest of the protocol: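 Relative activity compares each variant's cleaved/total read fraction with that of the unmutated ribozyme. To get these fractions, barcoded CPEB3 ribozyme libraries from rounds of error-prone PCR were transcribed with T7 RNA polymerase for 5 hours at 37°C and then given 15 min of DNase I treatment before EDTA was added. The RNAs were reverse transcribed with template switching and sequenced on Illumina, and DNA sequencing linked barcodes to variants. A minimum of 5 reads applied, and three batches were averaged.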
A13U U31C G33U U48C U72C: the self-cleavage is 0.06. The result for C14U U66C U72C U74A reads 0.66. The result for A13U U41A A45G U60C reads 0.28.

For the variant C14U U51A U58C U78C, the self-cleavage is 0.58.

Regarding C14U A18C U58C C79G, the self-cleavage came out at 0.25.

Turning to C14U U26C U43C U60C A64G U67C U72A, the self-cleavage amounted to 0.11. C14U G24A C50A: the self-cleavage is 0.08. The result for C14U A45C A77G U78C reads 0.11; that for A13U U31C C44U, 0.08; that for A15C A20G A75U, 0.7.

Turning to C14U U31C U41C U60C A64G, the self-cleavage is 0.12.

In the case of C14U A20U A35G U41A, the self-cleavage is 0.07.

A13U U48C U54C A64G U74C: the self-cleavage turned out to be 0.46. The result for A15C U66C U72C reads 0.42.

As for C14U A15U C32U U60C U67C, the self-cleavage is 0.06. The result for C14U A15U C17U U25C U66A U67A reads 0.06; that for A15C A75G U80A, 0.59; that for C14U A28G U49C C59A, 0.23.

Turning to C14U A15C C38U U58C U66A, the self-cleavage turned out to be 0.17. Take A13U U74A U78C: the self-cleavage was 1.26. With A13U U41C C79U, the self-cleavage is 1.23. The result for C14U C17U U41A reads 0.39. The result for C14U A21G G33A U41G A45G A64G U72A reads 0.06.

For the variant A15G A18G A28G A65G, the self-cleavage came to 0.24. The result for A13U U54G A57C U60C reads 0.09; that for C14A A21U U43C A57U U72C, 0.06. The result for C14U G30U U49C U54C U58C U76C U80C reads 0.03; that for C14A U43C U49A, 0.29. The result for A13U U51C C79U reads 1.24. For A15C A20U C34G C68A, the self-cleavage stood at 0.02. The result for A15C U31C U43A reads 0.56; that for A13U U66C U74A U78A, 0.09; that for C14U A18C C32U A64G U72G, 0.02. The result for A13U U60C U76A reads 0.64; that for A15G A18C G22C A45C A47U, 0.2; that for C14U U26C A47G, 0.56. The result for C14U A20G U41C reads 0.93; that for A15C A21C U41C, 0.2; that for C14U A35U G53A U74C U78C, 0.98. With C14A C29A U51A G73A U76C, the self-cleavage came to 0.97. The result for A13U U49C U54C U60C U72C reads 0.37; that for A15C C23U U25A U26C U31A A57G, 0.21; that for A15C U31G A47G, 0.26. The result for C14U U31A U76A reads 0.78. The result for C14A A15G A28G U43A U66C U76G A77G reads 0.17; that for A13U U49C U74G, 1.06.

Regarding A13U U41C A45C A56G A64G, the self-cleavage was found to be 0.16. Turning to C14U A20G U54C A56U, the self-cleavage is 0.45. The result for C14U G33C G46U U54C A57G reads 0.06; that for A15C U26A U69C U74C, 0.15. The result for A13U U48C A56G A64G U80C reads 0.5; that for A15C C23U A45G, 0.46.

Take A13U U31G C68U U78A: the self-cleavage came out at 0.75. The result for C14U A21G U48C G63A U72C U80C reads 0.13; that for C14U U41G C62U U67A U72C, 0.03; that for C14U A15G A56G U80C, 1.19. The result for C14U U54A A57G C62A reads 0.35; that for C14U U31A A45C U60A A65G, 0.06; that for A15C G24A U80G, 0.27.

For C14A U26C C32U, the self-cleavage is 0.38. The result for C14A A15C U43C U51A reads 0.24; that for A13U U31C U49G U54C, 0.31; that for A13U U48C A57U U72C U78A, 0.87. The result for A13U U31A G61A C68A reads 0.11; that for C14G A28G A45U U48C U51A U54G U74C, 0.04. A13U U49C U58C U69C: the self-cleavage amounted to 0.11. The result for C14U U26C U49A reads 0.55; that for A13U U43C A45G, 0.88; that for C14U A21G A28G, 0.23.

As to C14U A15G U80A, the self-cleavage came out at 1.27. The result for A13U U31C C44A A45G U60A reads 0.13.

Regarding A15C A64G U78C, the self-cleavage worked out at 0.56. The result for C14U U26C G36A U48C U80C reads 0.29; that for C14U U67C U72C A75G, 0.09; that for A15C A18G A20G U41A U48C U78C, 0.78. The result for A13U U41G A65G reads 0.12; that for C14U U25C A28G U31A G33A U48C, 0.06; that for C14A U25C U41C A64G U80C, 0.36. The result for C14A G24A U26A A47G reads 0.09. Turning to C14A A35G U66C, the self-cleavage was 1.28. The result for A13U U41A U69A reads 0.14; that for C14A A18U A45U A57G, 0.21; that for C14U A15U A56U A65U, 0.1.
